From PubChem BioAssay AID488969 (Vanderbilt High Throughput Screening Facility, 2010)
Over roughly 110,000 compounds, “z-score” has its median near -0.1; the highest 2% begin near 2. This is one part of the list.

molecular target: Metabotropic glutamate receptor 8 (Rattus norvegicus) (UniProt P70579); assay: rat mGluR8 modulators via GIRK flux, primary screen, cell-based, thallium flux, HTS (AID 488969); conditions: HEK293 rat mGluR8, GIRK (G protein-gated inwardly rectifying potassium channel) thallium flux, FluoZin2; at 10 µM; stronger effect = higher value; submaximal glutamate (EC20) added with thallium
UniProt P70579, sequence (P70579 whole entry, looked up): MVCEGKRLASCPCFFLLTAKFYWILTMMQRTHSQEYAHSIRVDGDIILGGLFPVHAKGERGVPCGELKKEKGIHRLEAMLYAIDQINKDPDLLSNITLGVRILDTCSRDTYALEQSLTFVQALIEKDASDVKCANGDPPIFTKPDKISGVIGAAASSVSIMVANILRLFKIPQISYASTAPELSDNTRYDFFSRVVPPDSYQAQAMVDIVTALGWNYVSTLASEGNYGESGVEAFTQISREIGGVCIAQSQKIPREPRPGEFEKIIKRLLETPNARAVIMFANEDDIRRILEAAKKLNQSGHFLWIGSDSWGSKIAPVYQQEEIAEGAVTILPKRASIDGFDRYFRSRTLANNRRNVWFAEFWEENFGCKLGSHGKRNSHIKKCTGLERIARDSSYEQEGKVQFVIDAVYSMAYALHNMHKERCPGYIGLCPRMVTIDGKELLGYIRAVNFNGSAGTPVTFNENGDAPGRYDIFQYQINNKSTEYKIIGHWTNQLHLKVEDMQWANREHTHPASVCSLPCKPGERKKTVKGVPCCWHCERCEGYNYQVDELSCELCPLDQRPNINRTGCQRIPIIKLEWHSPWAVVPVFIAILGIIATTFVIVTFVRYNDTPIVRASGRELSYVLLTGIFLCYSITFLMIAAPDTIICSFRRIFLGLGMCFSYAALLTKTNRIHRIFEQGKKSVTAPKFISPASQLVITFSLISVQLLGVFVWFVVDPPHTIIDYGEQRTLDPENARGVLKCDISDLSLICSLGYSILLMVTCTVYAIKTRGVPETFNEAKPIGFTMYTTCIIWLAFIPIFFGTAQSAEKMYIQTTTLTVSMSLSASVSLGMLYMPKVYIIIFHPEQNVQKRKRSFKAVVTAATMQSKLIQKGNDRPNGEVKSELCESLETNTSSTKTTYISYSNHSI

Row | SMILES | z-score
1 | COc1cc(-c2nnc3n2N=C(c2ccccc2)CS3)cc(OC)c1OC | -0.164
2 | OC(COc1ccc(OCc2ccccc2)cc1)CN1CCCCC1 (stereo unspecified) | 2.76
3 | CCN(CC)S(=O)(=O)c1ccc(C(=O)OCC(=O)c2ccc3c(c2)NC(=O)CO3)cc1 | -0.2
4 | O=C(Cc1cccs1)Nc1nnc(CCc2ccccc2)s1 | 0.238
5 | O=C1CN(S(=O)(=O)c2ccccc2)CC(=O)N1CCc1ccccc1 | -0.228
6 | Cc1cccc(C(=O)N2CCN(c3ccc(C(F)(F)F)cn3)CC2)c1C | -0.22
7 | COc1cc(Cn2cnnn2)ccc1O | -0.0623
8 | CC(C)C(=O)N1CCN(c2ccccc2NC(=O)c2cccc(Cl)c2)CC1 | -0.419
9 | COc1ccc(NC(=O)C(F)(F)F)cc1OC | -0.387
10 | CCOc1ccc(OCC)c(NC(=O)CSc2nc3ccccc3c(=O)n2C)c1 | 0.907
11 | C/C(=N\NC(=O)CNc1cccc2ccccc12)c1ccc(Br)s1 | -0.245
12 | COc1ccc(NC(=S)NC(NC(=O)c2cccc(Cl)c2)C(Cl)(Cl)Cl)c([N+](=O)[O-])c1 (stereo unspecified) | -0.619
13 | COc1ccc(-c2csc(NC(=O)C3CCCCN3S(=O)(=O)c3ccccc3)n2)cc1 (stereo unspecified) | 1.82
14 | O=C(Nc1ccc(/C=C/c2nc3ccccc3o2)cc1)c1c(F)cccc1F | -0.151
15 | CCC(C)N(C(=O)Cn1nnc2ccccc21)C(C(=O)Nc1ccc(F)cc1)c1cccc(OC)c1 (stereo unspecified) | -0.319
16 | COc1cccc(NC(=O)CCc2nc(-c3ccccc3F)no2)c1 | -0.45
17 | CC(C)(C)c1cnnn1-c1ccc(-c2csc(N)n2)cc1 | -0.0644
18 | Nc1c(C(=O)Nc2ccc(Cl)cc2)oc2ccccc12 | 0.273
19 | Cc1cc(C)cc(NC(=O)CSc2nnc(Cc3cccn3C)n2-c2ccc(F)cc2)c1 | 0.202
20 | CCN1C(=O)/C(=C/N2CCc3ccccc32)SC1=S | -0.279
21 | NS(=O)(=O)c1ccc(CCNC(=O)COC(=O)C2CCCN2C(=O)c2cccs2)cc1 (stereo unspecified) | -0.0687
22 | C[N+]1(CCOc2ccc([N+](=O)[O-])cc2)CCOCC1 | -0.159
23 | CS(=O)(=O)N1N=C(c2ccc3nccnc3c2)CC1c1ccccc1 (stereo unspecified) | -0.111
24 | O=C(CCn1[nH]c(=O)c2ccccc2c1=O)N1CCOCC1 | -0.82

Row | SMILES | z-score
25 | O=c1ccc(=O)n2n1CC(O)C2 | 0.375
26 | O=C(COC(=O)c1ccc(Sc2ccccc2)c([N+](=O)[O-])c1)NC1CCCc2ccccc21 (stereo unspecified) | -0.000641
27 | CC(C)CC(=O)N1CCN(S(=O)(=O)c2ccccc2)CC1 | 0.164
28 | CCCC1=C(C(=O)OCC)C(c2ccc(N(C)C)cc2)n2ncnc2N1 (stereo unspecified) | 0.517
29 | Oc1cc(-c2ccccc2)c2ccccc2c1 | -0.211
30 | CCOC(=O)N1CCN(CC(=O)Nc2c(C(=O)OC)[nH]c3cc(C)ccc23)CC1 | -0.466
31 | CN(NC(N)=O)c1ncc(C(F)(F)F)cc1Cl | -0.193
32 | CCCCc1ccc(-c2nc(N)n[nH]2)cc1 | 2.99
33 | O=C(c1ccccc1Oc1ccccc1)N1CCN(c2ccc(F)cc2)CC1 | -0.151
34 | O=[N+]([O-])c1ccc(/C=N/n2c(-c3cccnc3)n[nH]c2=S)cc1 | -0.131
35 | Cc1ccc(NC(=O)CC2Oc3ccccc3NC2=O)c(C)c1 (stereo unspecified) | 0.738
36 | CCC(C)(C)C1CCC(=NNC(=O)c2ccc(Br)o2)CC1 (stereo unspecified) | 0.389
37 | CCC(C)OC(=O)C1=C(C)NC2=C(C(=O)C(C(=O)OC)C(C)C2)C1c1ccc(N(C)C)cc1 (stereo unspecified) | -0.149
38 | CC(=O)Oc1ccc2ccccc2c1C(NC(=O)C(C)C)c1cccc([N+](=O)[O-])c1 (stereo unspecified) | -0.172
39 | CCCN(CCO)Cc1cccc(Cl)c1 | -0.0644
40 | O=C(/C=N/O)NCc1ccncc1 | 0.0144
41 | Cc1cc(=O)oc2cc(OCc3ccc(C(=O)N4CCN(c5ccccc5)CC4)cc3)ccc12 | -0.279
42 | CN(C)c1ccc(N=Nc2ccccc2C(=O)OCC(=O)N(C)C2CCCCC2)cc1 | -0.361
43 | O=P(Cc1cc[n+]([O-])cc1)(c1ccccc1)c1ccccc1 | -0.124
44 | CN(C)c1ccc(-c2nc3ccccc3n2C)cc1 | 1.17
45 | Cc1ccc(-c2noc(-c3ccccc3Br)n2)cc1 | 0.762
46 | CN(C)C(CNC(=O)c1cccc(S(=O)(=O)N(C)C)c1)c1ccccc1 (stereo unspecified) | -0.131
47 | COc1ccccc1NC(=O)c1ccc(NS(C)(=O)=O)cc1 | -0.372
48 | Cc1cc(=O)[nH]c(SCCOc2cccc(C(F)(F)F)c2)n1 | -1.03

Row | SMILES | z-score
49 | COCc1ccc2oc(C(=O)O)cc2c1 | -0.0899
50 | Cc1nn(-c2ccccc2)c(N)c1Sc1ccc([N+](=O)[O-])cc1 | -0.389
51 | O=C(Nc1ccc(Br)cc1)c1cccc(NC(=O)C2C3CC4OC(=O)C2C4C3)c1 (stereo unspecified) | -0.671
52 | CC(=O)c1cccc(NC(=S)NC(=O)C(C)C)c1 | -0.0531
53 | COCCSc1nnc(NC(=O)C2CCCCC2)s1 | -0.224
54 | C/C(=N\NC(=S)NCCc1ccccc1)c1ccc(C)cc1 | 1.67
55 | Cc1noc(NS(=O)(=O)c2ccc(NC(=O)CSc3nc4c(cc3C#N)CCCCC4)cc2)c1C | 0.295
56 | O=C(Nc1cc([N+](=O)[O-])ccc1F)C1CC1 | -0.162
57 | COc1cc(Cl)c(C)cc1NC(=O)CCCN1C(=O)CCC1=O | -0.613
58 | O=C(NCc1ccco1)c1ccc2c(=O)n(Cc3ccco3)c(SCC(=O)N3CCCC3)nc2c1 | -0.92
59 | CCOCCn1c(=NC(=O)c2cc3ccccc3oc2=O)sc2cc(S(N)(=O)=O)ccc21 | -0.105
60 | CSc1nc(-c2ccccc2)nc2c1COC(C)(C)C2 | -0.367
61 | COc1ccc(-n2c(=O)c3ccccc3c3ccccc3c2=O)c(OC)c1 | 0.505
62 | CCC(=O)N1CCN=C1SCc1ccccc1 | 0.616
63 | CCn1c(/C=N/n2cnnc2)nc2ccccc21 | 0.0863
64 | COc1ccc(NS(=O)(=O)c2ccc3oc(SCc4ccc(F)cc4)nc3c2)cc1 | 1.44
65 | CS(=O)(=O)N1CCN(C(=O)Cc2cccs2)CC1 | 0.615
66 | COc1ccc(Cn2c(=O)[nH]c3cc(C(=O)N4CCN(Cc5ccccc5)CC4)ccc3c2=O)cc1 | 0.367
67 | Cc1ccc(NC(=O)CSCC(=O)NC2CCCCC2)cc1 | -0.0477
68 | CCOC(=O)c1c(-c2cccs2)csc1NC(=O)C(C)(C)C | -0.0069
69 | COc1cccc(C(=O)Nc2cccc(OC(C)=O)c2)c1 | -0.0655
70 | CCCn1c(/C=C/c2ccccc2)nc2ccccc21 | -0.265
71 | O=C(N/N=C/c1ccc(Sc2nc3ccccc3s2)c([N+](=O)[O-])c1)c1ccccn1 | -0.00781
